According to the RNAGym collection of RNA variant scans (doi:10.1073/pnas.2313332121):
Variants at the floor of the assay are shown more often than the library holds them.

B1: TPR 5TU (parent)
chain: GGAUCUUCUCGAUCUAACAAAAAAGACAAAUCUGCCACAAAGCUUGAGAGCAUCUUCGGAUGCAGAGGCGGCAGCCUUCGGUGGCGCGAUAGCGCCAACGUUCUCAACUAUGACACGCAAAACGCGUGCUCCGUUGAAUGGAGUUUAUCAUG

Variants of: B1
Experiment: polymerase ribozyme fitness, log enrichment relative to wild type (log ratio); higher = more active; in vitro selection for triplet polymerase activity
Procedure, shortened: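 After PCR construction and transcription, each subunit's mutant library from a heterodimeric triplet polymerase ribozyme was annealed with a biotinylated primer, the partner subunit and triplets. Incubation was frozen, at −7 °C, and extended constructs were gel-excised, bound to streptavidin beads and amplified by RT-PCR, in one selection round done in triplicate. Fitness is the logarithm of a genotype's enrichment divided by that of the wild type, from inverse-variance-weighted replicate averages of Illumina-sequenced inputs and outputs. The base of the logarithm is 2, and genotypes needed ≥10 input reads and ≥1 read per output.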

Row | Variant | polymerase ribozyme fitness (log ratio)
1 | G48U U56A C87G U90C | -4.07
2 | A47U G50A C51A C85G C123U G133C U139A | ≤ -4.2
3 | A47G C114U | -2.4
4 | G48A C125U G133A | ≤ -4.2
5 | A47U G50C G126A | ≤ -4.2
6 | G48C C87G U111G | ≤ -4.2
7 | A49C A52C C69A C76U G92U C131G | ≤ -4.2
8 | G48C C76A C93U U127C | ≤ -4.2
9 | A49C A137C | ≤ -4.2
10 | A47G C57G G83A C95A G152A | ≤ -4.2
11 | A49C C72G G83A G88U A120G A150C | ≤ -4.2
12 | A47U C72G C76G G83U U102C G126A C132G A137U | ≤ -4.2
13 | A47U G59A C76A C129U | ≤ -4.2
14 | A47U C57U U61A U101A A107U C125A U145C | ≤ -4.2
15 | G48A G50C U55C G59U U61A G83U G140C | ≤ -4.2
16 | A47G U56A G62A U78A C87A C99U U134C U146G U148G | ≤ -4.2
17 | A49C A89U | ≤ -4.2
18 | G48A C76G | ≤ -4.2
19 | G48A G50C | -3.83
20 | G48C A60U U82A A91C U127A U148C | ≤ -4.2
21 | G48A | -0.217

Row | Variant | polymerase ribozyme fitness (log ratio)
22 | G48C | 0.0216
23 | G48U | 0.247
24 | G48A G65C A73G C85G | ≤ -4.2
25 | G48C G58A A91G | -3.21
26 | G48U U56A U78G C87A G128U | ≤ -4.2
27 | G48C A52G C57A G68U G100U | ≤ -4.2
28 | A47G C87U C125G G136U U148G C149A | ≤ -4.2
29 | G48C U145G | -0.0374
30 | G48A G88A C105G A115U | -3.86
31 | G48A C76A C85U C87U C93A | ≤ -4.2
32 | A47U G68U G74A C87G C99U | ≤ -4.2
33 | G48A A60G A98G G143C U151G | ≤ -4.2
34 | G48A G59C | -0.874
35 | G48A G50A G88U | ≤ -4.2
36 | A49C C54A U78C C85U | -3.91
37 | G48A G62A A73U A91G C95G U139A A142C | ≤ -4.2
38 | G48A C57A G84A U101A U135C | ≤ -4.2
39 | G48C G68A G86C | ≤ -4.2
40 | A47G G68A U78C G92A U101C G126A | ≤ -4.2
41 | G48A U90G C93G A98U C116U G136A G143C | ≤ -4.2
42 | G48U A49C U61C U78G C108G A115C | ≤ -4.2

Row | Variant | polymerase ribozyme fitness (log ratio)
43 | A47U G48A C57U G59C G94C G128A | ≤ -4.2
44 | G48A G88A U134C U144G | ≤ -4.2
45 | G48C U111A G140U | ≤ -4.2
46 | A49C A60G A91G G143U | ≤ -4.2
47 | G48C G50U G59U U82A G92C | -3.41
48 | G48U C103A U104G C132A | ≤ -4.2
49 | A47G G80A | -0.0419
50 | G48A A60G G84U | -1.73
51 | A49C C51U G68U G94C A119G A121U | ≤ -4.2
52 | A47U A60C C87A C114U | ≤ -4.2
53 | A47G A52U U56A G59U G86C U144G | ≤ -4.2
54 | A47U A49C C51U C93A | ≤ -4.2
55 | A49C A60G A91U G140A | ≤ -4.2
56 | G48C U78A C96U U101G G128C | ≤ -4.2
57 | G48A A60U C79G U90G A142C | ≤ -4.2
58 | G48C G80A C85U A120U A137G | ≤ -4.2
59 | G48U G100C U144A | ≤ -4.2
60 | G48A G86U A110U A147U A150U | ≤ -4.2
61 | G48C C54A C108G C114U C125U U134A C149G | ≤ -4.2
62 | A47G U61G G92C U102G U104G U111G | ≤ -4.2
63 | G48U G126U | -0.307

Row | Variant | polymerase ribozyme fitness (log ratio)
64 | G48A U82G C93A G128U | ≤ -4.2
65 | G48C C51A C54A C63U G68A U77C G88A C96U A142G | ≤ -4.2
66 | A47U G124A | 0.304
67 | G48U C57G C93U G136A U146G | -2.43
68 | A47U G81A C125G A150C | ≤ -4.2
69 | A47G U61G A142G | -2.82
70 | A47G C57U C75G C76G U77G C93A U127C | ≤ -4.2
71 | G48C G62A G68A C93U U109A | ≤ -4.2
72 | G48C G50U C96A G124U U135G | ≤ -4.2
73 | G48C U53G | -3.59
74 | G48A G136U | -2.5
75 | A47U C96A A97G A122C | -1.28
76 | A47G G92C C114U | -2.53
77 | G48C G58U C93G G140C | ≤ -4.2
78 | A49C A60C G65C G88A C131U | ≤ -4.2
79 | G48A U55A C57G A66U G83C U90A C108U G124U | ≤ -4.2
80 | A49C A142C U146A | ≤ -4.2
81 | G48A A52U U56A U78A A98U U139C | ≤ -4.2
82 | A47G U102G | ≤ -4.2
83 | G48A G67U G84U C105G | ≤ -4.2
84 | G48C A52C G74A G92C G94C C96U | ≤ -4.2
